# From the supplement of paper PMC3334620
# Over roughly 33,000 sequences, “E-score (-0.5 to 0.5)” has its median near -0.053; the highest 2% begin near 0.37. Some of the results follow.
# Biological target: Hap1 (UniProt P0CE41)
# Experiment: PBM E-score (8-mer binding enrichment) (E-score (-0.5 to 0.5)); higher = stronger / more preferred TF binding; most listed sequences are background and not binding sites
# Conditions: protein concentration: 200 nM; construct: GST-DNA-binding domain
# Outline: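 The E-score, a modified Wilcoxon-Mann-Whitney statistic, was computed by the Universal PBM Analysis Suite for every ungapped eight-base word pooled with its reverse complement. Scans behind it were normalised with masliner after bound GST-tagged yeast transcription factors were detected with fluorescent anti-GST. The proteins, at about 100-200 nM, had been applied to universal all-10-mer Agilent arrays made double-stranded by primer extension.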
# Chain of UniProt P0CE41 (P0CE41 whole entry): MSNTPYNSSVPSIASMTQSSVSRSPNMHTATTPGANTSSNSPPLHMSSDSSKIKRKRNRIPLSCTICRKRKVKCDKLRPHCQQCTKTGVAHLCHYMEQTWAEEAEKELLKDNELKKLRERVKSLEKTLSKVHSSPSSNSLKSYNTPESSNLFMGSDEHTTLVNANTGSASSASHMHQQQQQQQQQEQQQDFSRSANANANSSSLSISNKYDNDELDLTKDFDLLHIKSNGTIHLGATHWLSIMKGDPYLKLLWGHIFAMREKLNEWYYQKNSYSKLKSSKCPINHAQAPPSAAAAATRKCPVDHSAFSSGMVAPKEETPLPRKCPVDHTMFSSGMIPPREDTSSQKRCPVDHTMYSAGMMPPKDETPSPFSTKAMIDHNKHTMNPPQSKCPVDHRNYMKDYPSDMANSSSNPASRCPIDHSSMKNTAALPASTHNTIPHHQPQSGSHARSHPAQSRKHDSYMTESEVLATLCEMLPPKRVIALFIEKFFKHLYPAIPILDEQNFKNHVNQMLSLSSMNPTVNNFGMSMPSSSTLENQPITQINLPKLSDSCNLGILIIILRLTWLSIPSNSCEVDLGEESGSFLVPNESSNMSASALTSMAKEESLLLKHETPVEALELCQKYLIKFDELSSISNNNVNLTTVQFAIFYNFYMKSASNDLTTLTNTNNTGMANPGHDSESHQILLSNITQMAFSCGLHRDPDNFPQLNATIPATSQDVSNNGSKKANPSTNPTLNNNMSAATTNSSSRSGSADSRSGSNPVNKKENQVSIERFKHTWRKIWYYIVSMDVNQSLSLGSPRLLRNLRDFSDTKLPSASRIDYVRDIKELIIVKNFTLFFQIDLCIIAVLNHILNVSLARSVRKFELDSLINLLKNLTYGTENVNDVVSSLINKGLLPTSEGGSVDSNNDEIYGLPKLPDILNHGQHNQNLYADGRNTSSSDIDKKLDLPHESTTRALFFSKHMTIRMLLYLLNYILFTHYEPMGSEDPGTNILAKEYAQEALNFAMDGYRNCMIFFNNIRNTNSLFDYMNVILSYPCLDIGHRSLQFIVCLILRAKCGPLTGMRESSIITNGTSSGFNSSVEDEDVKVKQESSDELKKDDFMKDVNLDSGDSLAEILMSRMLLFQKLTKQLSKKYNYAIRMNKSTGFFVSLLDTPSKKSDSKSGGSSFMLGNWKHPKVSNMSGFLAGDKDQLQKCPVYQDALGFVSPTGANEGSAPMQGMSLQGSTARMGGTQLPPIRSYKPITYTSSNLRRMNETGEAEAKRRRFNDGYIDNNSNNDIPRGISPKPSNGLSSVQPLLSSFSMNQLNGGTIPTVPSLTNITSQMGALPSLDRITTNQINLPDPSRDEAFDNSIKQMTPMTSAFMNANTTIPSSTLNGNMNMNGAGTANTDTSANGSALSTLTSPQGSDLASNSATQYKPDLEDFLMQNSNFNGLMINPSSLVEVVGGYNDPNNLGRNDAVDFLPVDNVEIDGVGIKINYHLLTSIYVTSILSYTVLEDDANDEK
row,Sequence,PBM E-score
1,GATGGGGC,0.0213
2,ACCCGCGC,0.192
3,CGACCTAC,-0.0851
4,GGCCTACA,0.0465
5,CCGTACAG,0.0165
6,AAAATCGC,0.0477
7,CGGGGAAC,0.201
8,TGTGTAAA,-0.0404
9,ACCGTAGT,0.197
10,AACAATCA,-0.0737
11,ATGAATTC,-0.0929
12,AAACCCAA,-0.0811
13,CAATCACA,-0.141
14,ATCATAGG,-0.0747
15,ACCCGAAG,0.248
16,CACTTTCC,0.134
17,GCGTTAGC,0.00463
18,TGTTCAAA,-0.113
19,AGGTGTCA,-0.00168
20,GGGTGCGA,-0.0585
21,CCATACAA,-0.152
22,GTTCAGGA,-0.158

row,Sequence,PBM E-score
1,AAAAATCA,-0.15
2,CCGAAAAA,0.398
3,GAGACGAC,-0.0276
4,CAAATTAC,0.0167
5,CTTAGGAA,-0.0607
6,GACGTTAA,0.149
7,TCAACTAA,-0.129
8,ACGATAGG,0.0214
9,AGAGTAAC,-0.0196
10,GTCTGGCA,0.0695
11,AACTTAGG,-0.269
12,TAGGGAAA,-0.056
13,CTGTGTAA,-0.235
14,AATCATAT,-0.127
15,CAGGATAC,-0.181
16,CTTTCATA,-0.048
17,AAGCCTCC,-0.0993
18,GTGACAAC,-0.0971
19,GCTAGAGA,-0.195
20,CCGGCGCC,0.359
21,AAAATAGG,0.0822
22,GAGATGAA,0.0406

row,Sequence,PBM E-score
1,GAAAGACC,0.0171
2,CGACTCTC,-0.0357
3,ACGGTTCG,0.215
4,CTTGATTA,-0.127
5,CTATATCA,-0.183
6,AAATTCGG,0.24
7,GGTGGACA,0.128
8,ATAGAGTG,-0.0777
9,ACGTTCGA,-0.21
10,AAAATGTA,-0.0358
11,ATGACCAG,-0.198
12,AGATGAAC,-0.115
13,CGGGGTTA,0.485
14,GGTTGCGA,-0.0421
15,AAGTTGCG,-0.0881
16,AATGTTGC,-0.098
17,ATAGCAAT,-0.00748
18,CCCGCTCC,-0.119
19,CAGGCACG,-0.0709
20,AGATTGGC,-0.0735
21,AAGGCCGC,0.135
22,AGAGCAGG,-0.16

row,Sequence,PBM E-score
1,TATCGAGA,-0.129
2,CCCAGGGG,-0.255
3,ACAAGACT,-0.232
4,GGTAGCCA,-0.261
5,CTTCGAGC,0.108
6,AAAATCTC,-0.105
7,CTGACCAC,-0.0825
8,GCCAAGAC,-0.191
9,ATTCGCCA,-0.0888
10,CGGCTCAA,0.254
11,TCACCTCA,-0.177
12,TATTGTAA,-0.143
13,GGATTCAC,0.123
14,ATTGGCTG,-0.207
15,AGGCCTCC,-0.188
16,GCTAACCA,-0.163
17,AGCCCTAG,-0.308
18,ATGCTAAT,-0.0668
19,CATTAAAA,0.111
20,CGTGATGA,-0.246
21,GAGCTTAC,0.0306
22,CGCCGGGC,0.332

row,Sequence,PBM E-score
1,GGAGGCCC,0.0229
2,AAGTCGCT,-0.0241
3,CCCGGGGC,0.33
4,ATGTACAC,-0.246
5,GAACCATC,-0.00394
6,CACGCGGA,0.312
7,CCCTGACG,-0.0305
8,AACTCAGT,-0.0361
9,GCGGATAA,0.294
10,GACCAAAA,0.0136
11,CCACCCAG,-0.0588
12,CCGCCAAA,0.0722
13,AACTACAC,-0.0317
14,TACACAAA,-0.0107
15,GGGGTAGA,0.106
16,GCTCTTAA,0.163
17,CCTGTGAA,-0.172
18,GATAGTCA,0.00299
19,GTATGGAA,-0.156
20,AATAGCTA,-0.119
21,ATCTATAA,-0.131
22,AAAGCATA,-0.195
